Experimental data as given in the supplement of paper PMC3334620.
In all, about 33,000 sequences were measured (“E-score (-0.5 to 0.5)”: median about -0.054, highest 2% from about 0.35 on). The list shows a part of the results.

Molecular target: T1, Stb5 (UniProt P38699)
T1 sequence: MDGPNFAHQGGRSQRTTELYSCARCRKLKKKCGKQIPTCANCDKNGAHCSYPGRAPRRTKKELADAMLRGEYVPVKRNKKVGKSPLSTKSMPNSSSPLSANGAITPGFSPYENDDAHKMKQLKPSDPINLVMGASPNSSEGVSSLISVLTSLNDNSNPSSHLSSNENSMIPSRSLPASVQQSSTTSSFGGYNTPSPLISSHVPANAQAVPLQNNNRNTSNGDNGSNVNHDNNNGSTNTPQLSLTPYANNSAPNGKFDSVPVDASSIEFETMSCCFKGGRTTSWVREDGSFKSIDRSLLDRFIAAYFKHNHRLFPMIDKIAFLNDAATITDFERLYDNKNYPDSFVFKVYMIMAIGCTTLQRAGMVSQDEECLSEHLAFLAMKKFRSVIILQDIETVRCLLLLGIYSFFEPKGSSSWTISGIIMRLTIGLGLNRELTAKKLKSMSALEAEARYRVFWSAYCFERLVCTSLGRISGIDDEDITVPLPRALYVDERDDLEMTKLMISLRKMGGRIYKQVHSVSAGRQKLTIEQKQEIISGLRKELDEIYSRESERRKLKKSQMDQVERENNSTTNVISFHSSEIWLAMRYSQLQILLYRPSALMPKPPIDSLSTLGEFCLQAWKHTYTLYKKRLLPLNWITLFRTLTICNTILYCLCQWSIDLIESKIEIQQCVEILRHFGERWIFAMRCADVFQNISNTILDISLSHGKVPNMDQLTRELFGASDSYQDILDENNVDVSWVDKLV
Experiment: PBM E-score (8-mer binding enrichment) (E-score (-0.5 to 0.5)); higher = stronger / more preferred TF binding; most listed sequences are background and not binding sites
Settings: protein concentration: 200 nM; construct: GST-full length
Description: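 Universal 'all 10-mer' protein binding microarrays (Agilent AMADID 015681) probed with GST-tagged S. cerevisiae TFs (full-length or DBD) made by in vitro transcription/translation (PURExpress), about 100-200 nM. Bound TF was detected with fluorescent anti-GST. Each ungapped 8-mer (which stands for itself and its reverse complement) is scored by the PBM enrichment score (E-score), a modified Wilcoxon-Mann-Whitney statistic from -0.5 to +0.5, computed with the Universal PBM Analysis Suite. Scale: above 0.35 generally sequence-specific binding.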

Sequence	PBM E-score
TTGAGCAA	-0.289
GCAGAGAC	-0.0689
GAGTACGC	-0.253
GCAGGGTA	-0.216
TGGACACA	-0.0717
ATGAGGTG	-0.266
AATCCCTG	-0.149
ACTGGAAC	-0.0631
TTTATAAA	0.286
ATCGCTCG	-0.109
ACTACACT	-0.255
ACGATAAC	0.0877
AAGCCAGT	-0.307
AGTCGATG	-0.234
AAGACGAG	-0.166
ATGTCACG	-0.0387
CGATGATC	-0.0354
ACTCGCGG	0.203
AGGGAGGC	-0.159
GAGGCAAA	-0.184
GACGGTGC	0.392
AGCGTTGA	-0.0135
GTGGCCAC	-0.00927
ATTCAGGA	-0.135
ATAGAGGC	-0.189

Sequence	PBM E-score
CCATATGA	-0.131
GCATGGTA	-0.0259
AAAGAACT	-0.11
CTTCACGA	-0.173
AGTATCGC	0.0902
GTATCGAA	0.0312
CTTTTCGA	-0.19
CGAACAAA	0.0211
TATTCGCA	-0.161
CCCACCGC	0.221
GACCTCAA	-0.123
CAGCGAAG	-0.108
ATCTCCTG	0.0471
GCGGCGCC	0.326
CAACCGAG	-0.0958
GCACGCCA	-0.243
ATTGTTCG	0.0214
GCTCGAAA	0.0656
TCTCTAAA	-0.0864
AACCTTGG	-0.0674
CGCATTAA	0.0361
CCTCCTGC	-0.304
CTGGACAA	-0.236
CAACCCAG	-0.146
ACCACCGA	0.357

Sequence	PBM E-score
CGACAAAA	0.0666
GGTTTTGA	0.074
GGTTCAGA	-0.246
AGTGCGAT	0.0295
TCTGCCCA	-0.163
TCCAGAGA	-0.208
CCGATACC	0.213
TCAATAAA	-0.0262
CTTTTGGA	-0.0799
AGAGGACC	-0.182
CCCTCACA	-0.253
ACCATCTC	-0.0516
AGGAGGAC	-0.264
CCGCTCTA	0.284
CTGGGGGA	-0.233
CAATGGGG	-0.0137
CGAACACC	0.14
CATAGTTC	0.0483
GCATGGCC	0.003
TCGTACGA	-0.123
GCCTTCCC	0.0183
AACCACGG	-0.00831
ATATAATC	0.0583
CCCAGCGG	0.245
ATTGGGCC	0.0328

Sequence	PBM E-score
AGCTAGGG	-0.0617
ACTCTCGA	-0.367
CAGCCCAC	-0.0872
GCGGGGCC	0.335
ACAGTCCG	0.191
ACCCTATG	-0.294
CGTATTAA	-0.0376
TATAAAGA	-0.0662
CCCGGCCC	0.163
ACTAAGTC	-0.00313
ACTATCGC	-0.0394
AAAGCTGT	-0.153
GCCAATAA	-0.0464
CTTCTTAC	0.102
AATACGAG	-0.188
AATGAACG	-0.18
AACCATCC	0.00285
AACCTACC	-0.0234
AACAAAAT	-0.154
CAGGCTCC	0.0628
ATTCGCTA	-0.286
AAACCGTA	-0.0322
AATCATCC	0.00355
GATATAGA	-0.162
CATACGGC	0.212

Sequence	PBM E-score
AGGGCGCC	-0.0741
CTCATCAA	-0.178
ATGATCTA	-0.0693
CGATAGCA	0.0668
CGACCCCA	0.0535
CTCAACCA	-0.149
ACGGTTGG	-0.0945
ACTAGGCT	-0.252
CACGCACC	0.102
ACCAGTAC	-0.103
CCTTCTAG	-0.19
CTGTCTGC	-0.207
AGGCTAGA	-0.121
CTGGGTAC	-0.106
AGTGGAAC	-0.0518
AGGTCACT	-0.305
ACGGTAGG	0.108
AGCGAACC	-0.0988
TCCGTAGA	0.2
TAAACCTA	-0.0733
CAGGCTTA	-0.112
AGAAAGCT	-0.0757
GGGACTGA	-0.172
CTGGATGA	-0.148
CCGCTAGA	0.21

Sequence	PBM E-score
AGAAGGTG	-0.0907
GGGGTAAA	0.283
AGTAGGAG	-0.232
AGATCGCA	-0.0404
AACAGTCC	0.0174
GGCGGGCA	0.249
ACGGACCT	0.426
AGGAAGCG	-0.1
CGAAGAGA	-0.138
AGGCATCA	-0.202
CGCCGACC	0.345
CCGCACCC	0.232
ACGCCCAG	-0.295
TCAGATAA	0.00199
ATATACCC	0.371
ATGAGAAT	-0.0864
CGCGAGCG	0.239
AAGACACT	-0.21
AGGTCTGG	-0.277
CGCACGAG	0.0521
CTATACAG	-0.174
AGTTCTTA	-0.059
CGGTGCGC	0.253
CACTGCTC	-0.117
GGTTATAC	0.167

Sequence	PBM E-score
CACGTCTA	-0.207
AATCTTTC	-0.0622
GCACCCTA	-0.312
AATCCGTA	0.1
AATCACTG	0.162
GTATGAAC	-0.0796
ATACACTG	-0.238
GCTGGGAC	-0.111
ACACTCGG	-0.0647
GACATACC	0.153
GTCGTTCA	-0.157
GATTTAAC	0.2
CTACGGCA	0.14
CCGGCCAA	0.192
CTGTGTTA	-0.0928
GGTTTCTA	-0.0116
ATTATCCA	-0.0234
CTGTAGGC	-0.107
TCTCATCA	-0.186
ATTAATCG	0.172
GTGGGGCA	-0.0415
ATCACTTA	-0.124
GGCTCTGA	-0.283
GGTGTAAA	0.205
CTACACTA	-0.357

Sequence	PBM E-score
CTTACTTA	-0.0517
CACGTTAC	-0.15
ACAGGTCG	0.0428
AACCAACC	-0.168
ATAGTTAC	-0.135
AATTGTGG	-0.386
CGCCAGCA	0.0379
TATATGCA	-0.196
CAACAACA	-0.207
GTAGTAGA	-0.098
GCTGGCGA	-0.0669
ATGCCTCA	-0.178
CGGAGCAG	0.115
CAGTGGAC	-0.232
TAGTCGAA	-0.0837
AGTACGAA	-0.0773
ATGCCACC	0.06
CGGCGAGA	0.138
CTACATAC	0.0114
ATTATAGC	0.0539
AATGCCAG	-0.101
CCTGCATC	-0.139
ATGCGTAG	-0.0439
ACGATACT	-0.0934
AGTCGCAA	-0.117

Sequence	PBM E-score
ATTAATAG	-0.0404
AAGGCCCT	-0.145
CCCACCAA	0.0411
CTCAAAGC	-0.0111
AATCGGTA	0.262
AGTTGGAA	-0.121
GAATGTGA	0.0176
CATTCGCA	-0.0839
TCACCTAA	-0.0802
GAGAGCTC	-0.225
CTCCACTA	0.0133
AATCGCGT	-0.00793
ATCAGTTC	-0.181
AGATCCAG	-0.103
GACCTAAA	0.208
AGGTAGGA	-0.111
ACACGATA	0.106
GAAAGCAA	0.00425
TGGTCCAA	0.0428
